This note sets out measurements from the supplement of paper PMC4723716.

Over roughly 3,600 compounds, “viability index relative to DMSO control” has its median near 0.81; the lowest 2% begin near 0.13. The list shows a part of the results.
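Also: 384-well serum-free SaLSSA: MitoTracker Red CMXRos staining with saponin lysis, high-content imaging, treated-well particle count divided by plate-mean count of DMSO wells.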

The experiment relates to Plasmodium falciparum NF54 stage V gametocytes. As to the kind of experiment: viability index relative to DMSO control (fraction); higher = less gametocyte killing. Particulars: 1.25 µM, incubation time: 72 h.
With `CC(C)(C)c1ccc(Oc2ccc(N3C(=O)C4CC=CCC4C3=O)cc2)cc1` (stereo not drawn), the viability index stood at 1.24.

Molecule `COc1cccc(C2C(C(=O)Nc3ccc(C)cc3C)=C(C)Nc3c(C(=O)Nc4ccccc4)cnn32)c1` (stereo not drawn) returned a viability index of 0.418.

The molecule `CC(C=NNC(=O)c1ccco1)=Cc1ccccc1` had a viability index of 0.876.

`CCOc1ccc2[nH]c3c(NCCCN(C)C)ncnc3c2c1` gave a viability index of 0.901.

`C=CCC(=O)NC1CCN(CC(O)CN(Cc2ccccc2)S(=O)(=O)c2ccccc2)C1` (stereo not drawn) registered a viability index of 0.667.

The molecule `CCc1ccc(NC(=O)c2sc3nc(N)c(C#N)c(-c4ccc(OC)c(OC)c4)c3c2N)cc1` gave a viability index of 0.913.

In the case of `O=C(CCl)Nc1ccc(CN2CCCCC2)cc1`, the viability index came to 0.239.

The molecule `O=C1CCC(=O)N1c1ccc(CSc2nc3ccccc3[nH]2)cc1` returned a viability index of 0.914.

As for `O=C(Nc1ccccc1Cl)c1cc2ccccc2cc1O`, the viability index is 0.707.

`O=C(CSc1nc2ccccc2[nH]1)Nc1ccc2c(c1)OCO2`: the viability index was found to be 0.966.

The molecule `Cc1oc2c(c1C(=O)N1CCN(C)CC1)C(=O)c1ccccc1C2=O` came in with a viability index of 0.43.

Turning to `O=C(Nc1ccc(O)cc1)c1cccc(S(=O)(=O)N2CCCCC2)c1`, the viability index is 1.03.

`CCOC(=O)C1=C(C)NC2=C(C(=O)CC(c3ccc(OC)cc3)C2)C1c1cccc(F)c1` (stereo not drawn) had a viability index of 0.525.

Molecule `Cc1cc(C)c2nc(SCC(=O)Nc3ccc4c(c3)OCCO4)cc(C)c2c1` had a viability index of 1.15.

As to `CCOC(=O)N1CCN(S(=O)(=O)c2ccc(C(=O)Nc3sc4c(c3C(N)=O)CCN(CC)C4)cc2)CC1`, the viability index came to 1.2.

`CCOc1ccc(N2C(=O)c3ccccc3NC2(C)C)cc1` gave a viability index of 0.834.

`O=C1c2cccc(N3CCCC(C(=O)N4CCCCC4c4cccnc4)C3)c2C(=O)N1Cc1ccc(C(F)(F)F)cc1` (stereo not drawn): the viability index worked out at 0.865.

In the case of `CCOc1ccc2nc(C)cc(Nc3ccc(Br)cc3)c2c1`, the viability index is 1.16.

On to `O=C(C1CC1)N1CCc2cc(Br)cc(S(=O)(=O)N3CCCC3)c21`, for which the viability index worked out at 0.702.

On to `CCOc1ccc(-c2cn3c(n2)sc2cc(C(=O)NCCN(CC)CC)ccc23)cc1`, for which the viability index was 0.904.

Regarding `CC(C)N(C(=O)Cn1ccc(=N)c2ccccc21)C(C)C`, the viability index was found to be 0.877.

`O=C(Nc1cc(Oc2ccc(F)cc2)cc([N+](=O)[O-])c1)c1nc2nc(-c3ccccc3)cc(C(F)(F)F)n2n1` came in with a viability index of 0.815.

On to `COC(=O)c1sccc1S(=O)(=O)N1CCCC(c2[nH]ncc2-c2ccccc2)C1` (stereo not drawn), for which the viability index came out at 0.933.

For `Cc1cc(Nc2ccc(N(C)C)cc2)n2ncnc2n1`, the viability index is 1.19.

As to `Cc1cc(C)n(-c2ncc(-c3ccc([N+](=O)[O-])cc3)cn2)n1`, the viability index was found to be 1.02.

In turn, `COc1ccc(-c2csc3ncnc(Cl)c23)cc1OC` showed a viability index of 0.837.

As to `OCCNc1nc(Nc2ccc(Cl)c(Cl)c2)nc2ccccc12`, the viability index came to 0.528.

`Cc1cc2c(cc1S(=O)(=O)N1CCCCC1C)OCC(=O)N2` (stereo not drawn) yielded a viability index of 1.11.

For `COc1ccc(CCNC(=O)c2cc(S(=O)(=O)N3CC(C)CC(C)C3)ccc2Sc2ccc(F)cc2)cc1OC` (stereo not drawn), the viability index stood at 0.909.

For the molecule `CN(C)c1ccc(C=NNc2ncnc3[nH]cnc23)cc1`, the viability index is 0.76.

Consider `Oc1ccc(-c2ccccn2)cc1CNC1CCN(Cc2ccccc2)CC1`, for which the viability index worked out at 0.913.

`Cc1nc(-c2nc3c(s2)CN(C(=O)COc2ccc(Cl)cc2)CC3)cs1` displayed a viability index of 0.661.

On to `CCOC(=O)c1ccc2nc(-c3ccccc3)cc(O)c2c1`, for which the viability index turned out to be 1.08.

`COc1ccccc1NC(=O)C(=O)NCCc1ccc(OC)c(OC)c1`: the viability index stood at 0.413.

For `CCN1c2ccccc2N(C)C1(C)c1ccccc1` (stereo not drawn), the viability index was found to be 0.179.

`COc1ccc(NC(=O)c2cc3cc(C4(O)CCN(CC5CC=CCC5)CC4)ccc3o2)cc1` (stereo not drawn) came in with a viability index of 0.654.

For the molecule `CC(C)CC(N)C(=O)N1CCn2c(nc(-c3ccccc3)c2Nc2ccc3c(c2)OCO3)C1` (stereo not drawn), the viability index was 0.214.

As for `CCNC(=O)C1CCN(c2cccc3c2C(=O)N(C2CCCCCCC2)C3=O)CC1`, the viability index was found to be 0.981.

In turn, `CC(C)OCCCNc1sc(S(=O)(=O)c2ccccc2)nc1S(=O)(=O)c1ccc(Cl)cc1` gave a viability index of 0.622.

Molecule `CN(C)c1nnc(C(C#N)=Cc2cc(C(=O)c3cccc(Cl)c3)cn2C)o1` registered a viability index of 0.816.

`CCOC(=O)C1=C(C)NC2=C(C(=O)CC(c3ccc(Cl)cc3)C2)C1c1ccc(F)cc1` (stereo not drawn): the viability index stood at 0.728.

Molecule `CCCCN(CCCC)S(=O)(=O)c1cc(Br)cc2c1N(C(C)=O)CC2` had a viability index of 0.932.

As for `CCN1CCN(c2cc(C)c3cc(NC(=O)c4cncc(Br)c4)ccc3n2)CC1`, the viability index was 0.801.

For the molecule `COc1ccc(C2CC(=O)C3=C(C2)NC(=O)CC3c2ccc(C(F)(F)F)cc2)cc1OC` (stereo not drawn), the viability index was determined as 0.434.

`O=C(CSc1ccc2nnc(-c3cccc(F)c3)n2n1)Nc1ccc2c(c1)OCO2`: the viability index is 0.579.

`Cc1cc(Nc2ccc(C)c(C)c2)n2nc(C)nc2n1` came in with a viability index of 1.09.

In turn, `Cc1ccc(-n2c(=S)sc3c(=O)n(-c4ccccc4)c(SCC(=O)c4ccccc4)nc32)cc1C` displayed a viability index of 1.08.

`CCCCOc1ccc(C=CC(=O)NCc2ccco2)cc1` yielded a viability index of 1.2.

For `Cc1ccc(NC(=O)ON=C2CCCC2)cc1`, the viability index was 0.147.

`COc1ccc(C2CC(=O)C3=C(C2)NC(C)=C(C(=O)OC2CCCC2)C3c2ccc(OC)cc2)cc1` (stereo not drawn) had a viability index of 0.732.

As to `COc1ccc(-c2csc(NC(=O)COc3ccccc3Cl)n2)cc1Br`, the viability index amounted to 0.679.

For `CCC(C)(C)c1ccc(OCCCC[n+]2cccc(C)c2C)c(C(C)(C)CC)c1`, the viability index turned out to be 0.298.

Take `CC1CN(C)C(C)CC1=NOC(=O)c1ccc(Cl)c(Cl)c1` (stereo not drawn): the viability index came out at 0.954.

Molecule `O=C(NC1CCN(Cc2ccccc2)CC1)c1cc(-c2ccc(F)cc2)cc(-n2cnnn2)c1` registered a viability index of 1.12.

On to `CCOC(=O)C1CCN(C(=O)c2c(C)oc3c2C(=O)c2ccccc2C3=O)CC1`, for which the viability index came to 0.0992.

In the case of `COc1ccc(CCNC2(Cc3ccccc3)CC(C)N(C)CC2C)cc1OC` (stereo not drawn), the viability index was found to be 0.753.

As for `Cc1cc(Nc2ccc(C)c(Cl)c2)n2ncnc2n1`, the viability index was 1.1.

As for `COc1ccccc1N1CCN(c2c3c(nc4nncn24)CCC3)CC1`, the viability index stood at 1.16.
